Experimental data from PubChem BioAssay (NCI).
Where “and” joins values, the source holds several entries; their conditions need not be identical. Equal values may be shown once.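 Five concentrations, 48 hours, 96-well plates. GI50 = concentration required for 50% inhibition of growth. TGI denotes the concentration required for complete inhibition of growth.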 Calls of active or inactive are those of the source.

What was measured:
Experiment in all cases: inhibition of tumour cell growth, NCI panel, 48 h
[1] = test system: A498 renal
[2] = test system: MCF7 breast
[3] = test system: HOP-62 NSCLC
[4] = test system: SNB-75 CNS
[5] = test system: HCC-2998 colon
[6] = test system: NCI-H522 lung
[7] = test system: U251 CNS
[8] = test system: 786-0 renal
[9] = test system: SW-620 colon
[10] = test system: K-562 leukemia
[11] = test system: PC-3 prostate
[12] = test system: SF-295 CNS
[13] = test system: UO-31 renal
[14] = test system: MDA-MB-435
[15] = test system: UACC-62 melanoma
[16] = test system: NCI-H226 lung
[17] = test system: T-47D breast
[18] = test system: SN12C renal
[19] = test system: RXF 393 renal
[20] = test system: RPMI-8226 leukemia
[21] = test system: OVCAR-5 ovarian
[22] = test system: SNB-19 CNS
[23] = test system: A549 NSCLC
[24] = test system: ACHN renal
[25] = test system: COLO 205 colon
[26] = test system: HL-60(TB) leukemia
[27] = test system: HCT-116 colon
[28] = test system: M14 melanoma
[29] = test system: SF-268 CNS
[30] = test system: MDA-N
[31] = test system: HOP-92 NSCLC

## CCOC(=O)Oc1cc2c(c(OC)c1OC)-c1ccc(SC)c(=O)cc1[C@@H](NC(C)=O)CC2
[1]
  TGI: 648 nM
[2]
  TGI: > 100000 nM
[3]
  TGI: > 100000 nM
[4]
  TGI: > 100000 nM
[5]
  TGI: 835 nM
[6]
  TGI: 90.9 nM
[7]
  TGI: 60.2 nM
[8]
  TGI: > 100000 nM
[9]
  TGI: > 100000 nM
[10]
  TGI: > 100000 nM
[11]
  TGI: > 100000 nM
[12]
  TGI: 329 nM
[13]
  TGI: > 100000 nM
[14]
  TGI: 3.03 nM
[15]
  TGI: > 100000 nM
[16]
  TGI: 22.4 nM
[17]
  GI50: > 100000 nM
  TGI: > 100000 nM
[18]
  TGI: > 100000 nM
[19]
  TGI: 972 nM
[20]
  TGI: > 100000 nM
[21]
  GI50: inactive
  TGI: > 100000 nM
[22]
  TGI: > 100000 nM
[23]
  TGI: > 100000 nM
[24]
  TGI: > 100000 nM
[25]
  TGI: 164 nM and 22.9 nM
[26]
  TGI: 326 nM
[27]
  TGI: 1110 nM
[28]
  TGI: > 100000 nM
[29]
  TGI: > 100000 nM
[30]
  TGI: 11 nM
[31]
  TGI: 2350 nM
